Assay results reported in paper PMC6305191.
Results are given in words; binding and its absence hold for the method and conditions named. For some of these results: Binding seen in cells or lysates may run through a third protein. Some binding calls cover weakened binding; strength is not graded here. Tags and fused reporters may be left off the sequences shown.

Amino acid sequences for entries named in this document (tags omitted).
UniProt Q9LTB8: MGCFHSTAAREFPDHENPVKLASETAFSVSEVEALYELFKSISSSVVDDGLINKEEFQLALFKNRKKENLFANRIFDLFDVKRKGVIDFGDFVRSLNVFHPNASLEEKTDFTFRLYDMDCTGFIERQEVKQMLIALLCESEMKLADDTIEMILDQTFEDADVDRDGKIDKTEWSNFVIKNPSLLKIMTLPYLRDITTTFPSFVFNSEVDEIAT
UniProt O81223: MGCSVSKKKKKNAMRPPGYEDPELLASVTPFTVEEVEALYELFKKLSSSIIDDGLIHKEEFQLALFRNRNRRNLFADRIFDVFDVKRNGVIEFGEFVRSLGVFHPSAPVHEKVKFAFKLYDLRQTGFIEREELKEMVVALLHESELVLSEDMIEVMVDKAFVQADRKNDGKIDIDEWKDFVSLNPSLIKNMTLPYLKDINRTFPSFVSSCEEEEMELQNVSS
UniProt O81445: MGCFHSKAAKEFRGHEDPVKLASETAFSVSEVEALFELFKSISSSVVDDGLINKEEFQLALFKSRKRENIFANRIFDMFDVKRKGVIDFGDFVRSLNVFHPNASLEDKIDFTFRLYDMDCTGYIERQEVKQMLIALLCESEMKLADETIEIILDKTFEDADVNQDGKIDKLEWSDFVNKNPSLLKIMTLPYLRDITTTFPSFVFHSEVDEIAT
UniProt Q9C5P6: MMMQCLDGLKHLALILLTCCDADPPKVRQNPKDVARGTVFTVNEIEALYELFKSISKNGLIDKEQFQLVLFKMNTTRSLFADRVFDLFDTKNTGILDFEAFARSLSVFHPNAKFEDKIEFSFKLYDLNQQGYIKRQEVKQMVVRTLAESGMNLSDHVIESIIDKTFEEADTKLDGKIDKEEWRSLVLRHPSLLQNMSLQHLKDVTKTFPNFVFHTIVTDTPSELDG
UniProt Q7FRS8: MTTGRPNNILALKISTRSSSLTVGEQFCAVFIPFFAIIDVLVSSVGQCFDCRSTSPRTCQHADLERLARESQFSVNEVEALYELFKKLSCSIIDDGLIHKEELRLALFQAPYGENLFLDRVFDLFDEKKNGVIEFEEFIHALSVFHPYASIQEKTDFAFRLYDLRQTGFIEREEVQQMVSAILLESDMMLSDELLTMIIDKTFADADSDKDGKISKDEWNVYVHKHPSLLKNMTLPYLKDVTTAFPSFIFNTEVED
UniProt Q9SUA6: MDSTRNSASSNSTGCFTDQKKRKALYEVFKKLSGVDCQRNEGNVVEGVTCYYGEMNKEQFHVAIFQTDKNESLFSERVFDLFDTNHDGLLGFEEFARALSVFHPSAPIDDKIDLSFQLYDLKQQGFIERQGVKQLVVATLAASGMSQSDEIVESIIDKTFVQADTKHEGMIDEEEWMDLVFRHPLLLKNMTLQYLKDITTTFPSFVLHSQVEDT

B1: CBL5–YFP^C (protein, UniProt Q7FZF1 1-203)
chain: MGCVCSKQLEGRRQEDISLLASQTFFSEAEVEVLHGLFIKLTSCLSNDNLLTKEKFQFILIKNTKKRSLSAERIFGLFDMRNDGAIDFGEFVHTLNIFHPNSSPRDKAIFAFRLYDTRETGFIEPEEVKEMIIDVLEESELMLSESIIDSIVSKTFEEADWKKDGIIDLEEWENFVATYPLTLKNMTIPFLKDIPRIFPTFLR
B2: CBL5 (calcineurin B-like protein 5) fused to the GAL4 activation domain (protein, UniProt Q7FZF1 1-203)
chain: MGCVCSKQLEGRRQEDISLLASQTFFSEAEVEVLHGLFIKLTSCLSNDNLLTKEKFQFILIKNTKKRSLSAERIFGLFDMRNDGAIDFGEFVHTLNIFHPNSSPRDKAIFAFRLYDTRETGFIEPEEVKEMIIDVLEESELMLSESIIDSIVSKTFEEADWKKDGIIDLEEWENFVATYPLTLKNMTIPFLKDIPRIFPTFLR
B3: CBL8 (calcineurin B-like protein 8) fused to the GAL4 activation domain (protein, UniProt Q9FUQ7 1-214)
chain: MLAFVKCFSLKRAKHPRGYEDPHVLASETPFTVNEIEALHDLFKKLSTSIINDGLIHKEEFLLALFRNGSMQNLFADRVFYMFDRKRNGVIEFGEFVRSLSIFHPYTPEHEKSAFMFKLFDLHGTGFIEPHELKKMVGALLGETDLELSEESIEAIVEQTMLEVDTNKDGKIDEEEWKELVAKNPSILKNMTLPYLKEVTLAFPSFVLDSEVED

The molecules below were run against T1, YFP^N–CIPK25 (Arabidopsis thaliana) (UniProt Q8W1D5) (assay: split reporter; BiFC: YFP^N–CIPK25 with CBL–YFP^C transiently expressed in N. benthamiana leaves by agroinfiltration; YFP fluorescence by confocal microscopy and, for leaf discs, by plate reader (485 nm excitation, 520 nm emission)).
T1 sequence: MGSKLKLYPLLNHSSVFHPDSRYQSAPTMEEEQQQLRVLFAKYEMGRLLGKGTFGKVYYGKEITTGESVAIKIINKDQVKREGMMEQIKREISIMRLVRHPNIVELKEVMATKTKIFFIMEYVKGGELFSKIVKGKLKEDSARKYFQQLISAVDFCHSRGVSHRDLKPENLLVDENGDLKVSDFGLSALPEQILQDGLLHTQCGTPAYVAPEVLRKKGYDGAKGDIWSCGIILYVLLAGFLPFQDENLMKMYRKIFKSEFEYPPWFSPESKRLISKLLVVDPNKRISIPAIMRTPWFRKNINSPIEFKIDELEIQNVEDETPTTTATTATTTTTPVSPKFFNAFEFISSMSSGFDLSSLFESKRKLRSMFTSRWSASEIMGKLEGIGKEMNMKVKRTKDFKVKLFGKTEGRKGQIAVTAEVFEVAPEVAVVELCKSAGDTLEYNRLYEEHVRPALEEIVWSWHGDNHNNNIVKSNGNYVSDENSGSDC

For CBL9–YFP^C (from UniProt Q9LTB8 1-213), which binding is on record?
The binding was “no binding”.

How did the binding turn out when CBL4–YFP^C (from UniProt O81223 1-222) was run?
Its binding is “binds”.

How did the binding turn out when B1 was run?
Its binding is “binds”.

These molecules were tested against T2, CIPK25 (CBL-interacting protein kinase 25) fused to the GAL4 DNA-binding domain (Arabidopsis thaliana) (UniProt Q8W1D5) (assay: two-hybrid; GAL4 DNA-binding domain-CIPK25 (pGBKT7) with GAL4 activation domain-CBL1 to CBL10 (pGADT7) in Y2H Gold yeast; dilutions spotted on quadruple drop-out medium (-Leu-Trp-Ade-His) with 2.5 mM 3-AT, 30 °C, 5 d).
T2 sequence: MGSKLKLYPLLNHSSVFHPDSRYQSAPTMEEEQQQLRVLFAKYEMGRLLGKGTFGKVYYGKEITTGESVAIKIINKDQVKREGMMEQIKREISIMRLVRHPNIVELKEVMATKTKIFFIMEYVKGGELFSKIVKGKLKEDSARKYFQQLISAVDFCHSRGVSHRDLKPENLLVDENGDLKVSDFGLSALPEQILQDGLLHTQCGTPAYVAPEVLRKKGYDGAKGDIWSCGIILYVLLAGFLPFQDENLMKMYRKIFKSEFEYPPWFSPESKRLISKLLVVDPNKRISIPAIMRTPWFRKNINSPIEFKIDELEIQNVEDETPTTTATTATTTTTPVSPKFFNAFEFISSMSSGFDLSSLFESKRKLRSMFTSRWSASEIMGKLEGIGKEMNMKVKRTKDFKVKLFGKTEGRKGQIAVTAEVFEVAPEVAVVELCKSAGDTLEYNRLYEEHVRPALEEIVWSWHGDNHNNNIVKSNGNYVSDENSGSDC

For “CBL3 (calcineurin B-like protein 3) fused to the GAL4 activation domain (from UniProt Q8LEM7 1-226)”, which binding is on record?
The binding was “no binding”.

“CBL1 (calcineurin B-like protein 1) fused to the GAL4 activation domain (from UniProt O81445 1-213)” was tested. Which binding did it give?
Its binding is “no binding”.

Which binding does the source give for “CBL4 (calcineurin B-like protein 4) fused to the GAL4 activation domain (from UniProt O81223 1-222)” here?
Its binding is “binds”.

How did the binding turn out when “CBL9 (calcineurin B-like protein 9) fused to the GAL4 activation domain (from UniProt Q9LTB8 1-213)” was run?
Its binding is “no binding”.

How did the binding turn out when “CBL6 (calcineurin B-like protein 6) fused to the GAL4 activation domain (from UniProt Q9C5P6 1-226)” was run?
The binding was “no binding”.

How did the binding turn out when “CBL10 (calcineurin B-like protein 10) fused to the GAL4 activation domain (from UniProt Q7FRS8 1-256)” was run?
Its binding is “no binding”.

How did the binding turn out when “CBL2 (calcineurin B-like protein 2) fused to the GAL4 activation domain (from UniProt Q8LAS7 1-226)” was run?
The binding was “no binding”.

For “CBL7 (calcineurin B-like protein 7) fused to the GAL4 activation domain (from UniProt Q9SUA6 1-214)”, which binding is on record?
Its binding is “no binding”.

With B2 as the molecule, how does the binding read?
Its binding is “binds”.

How did the binding turn out when B3 was run?
Its binding is “no binding”.
